Our source for the survival values is PubChem BioAssay AID463173 (ICCB-Longwood Screening Facility, Harvard Medical School, 2010).

Out of some 52,000 compounds screened, about 4,300 (8.3%) were called active. Cut-off read from the data, not from the text of the source: active = survival mostly below about 52% (no sharp cut-off); inactive = mostly above about 56%. This is one part of the list.

In the assay the test system is DeltatarO mutant. Kind of assay: growth inhibition of S. aureus wild type versus tarO mutant, primary screen, teichoic acid synthesis inhibitors, RN4220, OD600 (AID 463173). The settings on record: OD600, 18 h, stronger effect = lower value, screened at 18.75 µg/mL (by protocol).
As to `COc1ccc(CNC(=O)c2cnn3c2NC(c2ccc(C)cc2)CC3C(F)F)cc1OC` (centres undefined), the survival is inactive: 86%. The figure for `CCN(CC)S(=O)(=O)c1ccc(OC)c(NC(=O)c2sc3ccccc3c2Cl)c1` is inactive: 83%; for `Cc1ccc2c(c1)c1c(c(=O)n(Cc3ccccc3)c(=O)n1Cc1ccccc1F)n2C` it is inactive: 67%. As for `CCOc1ccc(N2CC(NC(=O)c3ccc(Cl)cc3)CC2=O)cc1` (centres undefined), the figure is inactive: 73%; as for `CCOc1ccc(CNC(=O)Cn2c(=O)c3cccn3c3cccnc32)cc1`, inactive: 70%; as for `COc1ccc2c(c1)c(N1CCCC1=O)c(C(=O)Nc1ccc(OC)c(Cl)c1)n2C`, inactive: 78%.

As for `CC(=O)c1cccc(NS(=O)(=O)c2c(C(=O)N3CCCCCC3)c(C)n(C)c2C)c1`, the survival was inactive: 76%.

For `COc1ccc(NC(=O)[C@H](Cc2ccccc2)N2Cc3ccccc3C2=O)cc1OC`, the survival is inactive: 81%.

With `COc1cccc(NC(=O)Cn2c(=O)n(Cc3ccc4c(c3)OCO4)c(=O)c3oc4ccccc4c32)c1`, the survival is inactive: 71%. Turning to `Cc1ccc(-n2ncc(C(=O)NCCN3CCN(C)CC3)c2C2CCN(C(=O)OC(C)(C)C)CC2)cc1C`, the survival was inactive: 70%. As for `COc1ccc(-n2c(SCCC(C)C)nc3sc4c(c3c2=O)CC(C(C)C)OC4)cc1` (centres undefined), the figure is active: 30%; as for `CC1CCC(NC(=O)c2ccc(CSc3nc4ccncc4n3Cc3ccc(F)cc3)cc2)CC1` (centres undefined), inactive: 59%. The figure for `Cc1nn(CCCC(=O)Nc2ccccc2C(F)(F)F)c(=O)c2nn(-c3ccccc3)c(C)c12` is inactive: 84%; for `Cc1nn2c(-c3ccccc3)cc(-c3ccccc3)nc2c1-c1ccc(Cl)cc1` it is inactive: 78%; for `COc1ccc(C(CC(=O)Nc2ncccc2C)N2Cc3ccccc3C2=O)cc1OC` (centres undefined) it is inactive: 81%. The figure for `O=C(Nc1ccccc1)c1cccc(N2CCCS2(=O)=O)c1` is inactive: 113%. Turning to `Cc1cc(C)n2nc(CNC(=O)c3ccc(Cl)cc3)nc2n1`, the survival is inactive: 122%. For `CCc1ccc(NC(=O)c2cc(S(=O)(=O)NC3CCCCCC3)ccc2F)cc1`, the survival is inactive: 102%. The figure for `Cc1nn(-c2ccccc2)c2c1N(CC(=O)N1CCN(c3ccc(Cl)cc3)CC1)C(=O)CS2` is inactive: 90%; for `Cc1nn(-c2ccccc2)c2c1N(CCCC(=O)NC(C)c1ccccc1)C(=O)CS2` (centres undefined) it is inactive: 96%; for `Cc1ccc(S(=O)(=O)c2cn(Cc3ccccc3)c3cc(N4CCOCC4)c(F)cc3c2=O)cc1` it is inactive: 98%.

Turning to `O=C(NCCNC1CCCC1)c1ccco1`, the survival was inactive: 94%. The figure for `CCc1ccc(CNC(=O)CCn2nc(C)c3c(C)n(-c4ccccc4)nc3c2=O)cc1` is inactive: 55%. The figure for `CCOC(=O)c1c(C)nc2c(c1C)c(=O)oc1ccccc12` is inactive: 94%; for `CCN1CCN(CCCNC(=O)Cn2c(-c3cccs3)cc3cc(Cl)ccc32)CC1` it is inactive: 94%. For the compound `COc1ccc(-c2nc(CNC(=O)Nc3ccccc3)c(C)o2)c(OC)c1`, the survival was inactive: 90%. The figure for `O=c1ccc(-c2ccccc2)nn1Cc1c(F)cccc1Cl` is inactive: 55%; for `CCn1ccc2c(OCC(=O)Nc3ccc(OC)cc3OC)cccc2c1=O` it is active: 20%. The figure for `COc1ccccc1CNC(=O)CCc1c(C)c2cc3c(C)coc3cc2oc1=O` is inactive: 62%. As for `CCn1cc(C(=O)NCCC(C)C)c(=O)c2cc(S(=O)(=O)N(C)C3CCCCC3)ccc21`, the figure is inactive: 66%.

Turning to `CCC(=O)N1c2ccccc2CC1C(=O)NCCCN1CCN(c2ccc(OC)cc2)CC1` (centres undefined), the survival is inactive: 86%. The figure for `CCCCOc1ccc(CNC(=O)c2cnc3sc(N4CCCC4)nn3c2=O)cc1` is inactive: 113%.

For `Cc1c(Cl)cccc1NC(=O)C(=O)NCCc1csc2nc(-c3ccccc3F)nn12`, the survival was active: 6%. As for `CC1CCCCN1c1cc2c(cc1F)c(=O)c(S(=O)(=O)c1ccccc1)cn2Cc1ccccc1` (centres undefined), the figure is inactive: 107%. As for `O=C(Cn1c(-c2cccs2)cc2cc(F)ccc21)NCCc1ccc(Cl)cc1`, the figure is inactive: 91%. The figure for `O=S(=O)(Nc1ccc(O)c(Sc2nc3ccccc3s2)c1)c1cc(Cl)ccc1Cl` is active: -8%; for `COc1cccc(-c2nc(CS(=O)(=O)CC(=O)N3CCN(c4ccccc4)CC3)c(C)o2)c1` it is inactive: 63%. Take `CC(=O)Nc1ccc2nc(NC(=O)c3cc4ccccc4o3)sc2c1`: the survival was inactive: 102%.

For the compound `Cc1ccc(Cl)cc1N1CCN(C(=O)c2ccc3c(Cl)c4c(nc3c2)CCCC4)CC1`, the survival is active: 31%.

For `O=C(Cn1c(=O)ccc2cc(S(=O)(=O)N3CCCC3)ccc21)Nc1ccccc1`, the survival is inactive: 57%. As for `CC(C)CCNC(=O)c1cnc2sc(N3CCCCCC3)nn2c1=O`, the figure is inactive: 78%; as for `Cc1oc(CC(C)C)c(CN2CCOCC2)c1C(=O)O`, inactive: 79%.

Regarding `COc1ccc(-n2nc3c(N4CCC(C(=O)N5CCC(C)CC5)CC4)nnc(C)c3c2C)cc1`, the survival is inactive: 91%. The figure for `COc1ccc(CNC(=O)c2ccc(Cn3c(=O)c4cccn4c4cccnc43)cc2)c(OC)c1` is active: 58%; for `Cc1ccc(O)c(NC(=O)c2cc(-c3ccc(F)cc3)no2)c1` it is inactive: 77%. As for `Cc1nc2c3cccnc3nn2c(C)c1CCC(=O)NCc1ccccc1`, the figure is inactive: 110%. The figure for `CCN(CC)S(=O)(=O)c1ccc2c(c1)nc(CN(C)C(=O)Nc1ccc(C)c(Cl)c1)n2C` is inactive: 86%. Take `COc1ccc(Nc2ncc(C(=O)Nc3cccc(Cl)c3)c3ccccc23)cc1`: the survival is inactive: 53%. Regarding `CCc1ccc(NC(=O)C(=O)NCC(c2ccc3c(c2)OCO3)N2CCN(C)CC2)cc1` (centres undefined), the survival was inactive: 94%. The figure for `Cc1ccc(OCC(=O)NCC2(N3CCN(C)CC3)CCCCC2)cc1` is inactive: 76%; for `NC(=O)C1CCN(c2csc3ccc(F)cc3c2=O)CC1` it is inactive: 101%. Consider `CCn1c(CN2CCN(C)CC2)nc2cc(NC(=O)c3ccc([N+](=O)[O-])cc3)ccc21`, for which the survival is inactive: 90%. As for `COc1ccc(N2CCN(C(CNC(=O)c3ccc(OC)c(OC)c3)c3cccnc3)CC2)cc1` (centres undefined), the figure is inactive: 72%; as for `CCOC(=O)N[C@H](Cc1c[nH]c2ccccc12)C(=O)Nc1cccc(Cl)c1`, inactive: 107%; as for `COc1ccc(OC)c(NC(=O)c2nc(S(=O)(=O)Cc3ccc(F)cc3)ncc2Cl)c1`, active: -5%. On to `CCc1ccc(C2CC(=O)Nc3c2c(=O)n(C)c2ncnn32)cc1` (centres undefined), for which the survival was inactive: 165%. The figure for `O=C(Oc1ccc(F)cc1)N1CCOCC1` is inactive: 95%; for `COc1ccc(C(=O)c2cn(CC(=O)Nc3cc(C)ccc3C)c3nc(C)ccc3c2=O)cc1` it is inactive: 124%; for `CCOCCCN(Cc1ccco1)C(=O)c1cc2c(s1)-c1c(C)cccc1OC2` it is active: -3%.

Consider `Cc1cccc2nc(-c3ccccn3)c(Nc3ccccc3)n12`, for which the survival is inactive: 24%.

Regarding `CCCCOC(=O)c1ccc(-n2nnc3c(sc4nc(C)cc(C)c43)c2=O)cc1`, the survival was inactive: 89%. The figure for `COc1ccc(CNC(=O)c2c(O)nc3c(C)cccn3c2=O)cc1` is inactive: 69%; for `CN(C)c1ccc(CNC(=O)CCCN2C(=O)c3cccnc3Oc3ccc(Cl)cc32)cc1` it is inactive: 81%.

Take `Cc1cc(N2CCC(C)CC2)nc2ccc(NC(=O)Cc3ccccc3Br)cc12`: the survival is active: 46%.

Take `O=S(=O)(NCCc1nnc2ccc(SCc3ccccc3Cl)nn12)c1ccccc1`: the survival is active: 68%. The figure for `CCOc1ccc(-c2nc(-c3ccccc3)c(-c3ccccc3)[nH]2)cc1OCC` is inactive: 142%.

Regarding `COc1cc2nc(Nc3cccc(F)c3)nc(N)c2cc1OC`, the survival was inactive: 97%. The figure for `CCOc1ccc(S(=O)(=O)N2CCCCC2C)c2ccccc12` (centres undefined) is inactive: 100%; for `Cc1ccc(NC(=O)CN(Cc2ccccc2)S(=O)(=O)c2ccc3nc(C)sc3c2)c(C)c1` it is inactive: 83%; for `Cc1ccc(-c2nc(CSc3nnc(C)n4c3cc3occc34)c(C)o2)cc1` it is inactive: 72%.

`CCCCSc1nnc2c(n1)OC(c1ccc(Br)s1)Nc1ccccc1-2` (centres undefined): the survival is active: 10%. The figure for `COc1cccc(-c2cc(C(F)(F)F)n3ncc(C(=O)OC(C)C)c3n2)c1` is inactive: 76%; for `O=C(NCc1ccccc1Cl)c1nnc(Cc2cccc(F)c2)o1` it is inactive: 84%; for `Cc1ccc2c(CC(=O)N(Cc3ccc(N(C)C)cc3)Cc3ccco3)coc2c1C` it is active: 45%. As for `O=C1CSC2(C(=O)N(Cc3cccc(C(F)(F)F)c3)c3ccccc32)N1c1ccc(F)c(F)c1` (centres undefined), the figure is inactive: 81%; as for `Cc1ccc(CNC(=O)Cn2ccn(-c3cccc(Cl)c3)c(=O)c2=O)cc1`, inactive: 72%.

`COc1cc2c(cc1N)CCCC2`: the survival was inactive: 104%.

For `CCN(CC)C(=O)C1=C(C)Nc2nc3ccccc3n2C1c1cccc(OC)c1` (centres undefined), the survival was inactive: 62%. As for `Cc1ccc(-n2c(C)cc(/C=C(\C#N)C(=O)Nc3ccc(C)c(C)c3)c2C)cc1`, the figure is inactive: 48%; as for `O=C(Nc1ccccc1C(F)(F)F)c1ccc(F)c(S(=O)(=O)N2CCc3ccccc3C2)c1`, inactive: 75%; as for `CCc1ccc(OCC(=O)N(Cc2ccc(C(C)C)cc2)C2CCS(=O)(=O)C2)cc1` (centres undefined), active: 23%.

For the compound `Cc1ccc(-c2noc(CNC(=O)c3ccc(C)c(Cl)c3)n2)cc1`, the survival is inactive: 49%. The figure for `CCCOc1ccc(C2C(=O)N(C3CCC(C)CC3)CC(=O)N2CCc2ccccc2)cc1OC` (centres undefined) is inactive: 109%; for `Cc1cc(C)cc(NC(=O)COc2cccc3c(=O)n(C)ccc23)c1` it is inactive: 89%; for `COc1ccc(CCNC(=O)c2ccc(-n3c(C)cc4c3CCC(C)C4)cc2)cc1OC` (centres undefined) it is active: 52%.

`O=C(CNC(=O)c1ccc(F)cc1)OCc1cc(=O)n2ccsc2n1`: the survival was inactive: 85%. The figure for `COc1ccc(C(=O)Nc2ccc3oc(-c4cccc5c(Br)cccc45)nc3c2)cc1` is inactive: 68%. The figure for `CCN1CCc2c(sc(NC(=O)c3ccc(S(=O)(=O)N4CCCC(C)C4)cc3)c2C(=O)OC)C1` (centres undefined) is inactive: 76%; for `Cc1cc(C(C)(C)C)oc1C(=O)O` it is inactive: 86%.
